The values below come from PubChem BioAssay AID2101 (National Center for Advancing Translational Sciences (NCATS), 2009).

Hit rate of the full screen: of about 330,000 compounds, about 300 (0.091%) were called active. Another 4% or so got no clear call; they are omitted. Calls come from the whole dose curve; as a rule, active = well fitted inhibition curve with a large enough effect; inconclusive = small, poorly fitted or top-dose-only effect, or effect the other way, or another doubt; inactive = no such curve, though single readings can be large or run the other way. Only a part is listed here, and it is no random draw.
Potency is the fitted concentration of half-maximal effect.

The test has as its target Lysosomal acid glucosylceramidase (Homo sapiens) (UniProt P04062). Nature of the test: qHTS Assay for Inhibitors and Activators of N370S glucocerebrosidase as a Potential Chaperone Treatment of Gaucher Disease.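 For activity change, negative = inhibition: 0% = full enzyme activity and -100% = no enzyme basal.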 Particulars: N370S GC spleen homogenate, 4MU-glucoside fluorescence; series mostly up to 59.4 µM; activity change, negative = inhibition: at the top concentration. For orientation: Quantitative high-throughput screening tests each substance at several concentrations.
In the case of `COc1cc2c(cc1O)CCC1C2CC[C@]2(C)[C@@H](O)CC[C@@H]12` (stereo partly drawn), the “activity change, negative = inhibition” value was inactive: 11.2%.
Turning to `Cc1ccc(CNc2nc(-c3cccs3)nc3ccccc23)cc1`, the Potency is active: 14.1 µM.
Same read-out and setting: the value for `COC(=O)[C@H]1[C@H]2C[C@H]3c4[nH]c5ccccc5c4CCN3C[C@H]2CC[C@@H]1O` was “inactive”.
Take `O[C@@H]1[C@@H]2c3cc4c(cc3CN3CCC(=C[C@@H]1O)[C@H]23)OCO4`: the “activity change, negative = inhibition” value is inactive: 8.86% [at 21.6 µM].
Still for that read-out and setting: as for `Cc1ccc(C(=O)Cn2c3c(sc2=N)CCCC3)cc1`, the figure is inactive: 17.8%; as for `Nc1nc(NCC2CCC(CNS(=O)(=O)c3cccc4ccccc34)CC2)nc2ccccc12` (stereo not drawn), inactive: -14%.
On to `CCN(CC)CCOCCOC(=O)C1(c2ccccc2)CCCC1`, for which the Potency entry is “inactive”.
For `CCN1C(=O)N(S(=O)(=O)c2ccc(C)cc2)[C@@H](c2ccccc2)C(C(=O)OC)=C1C`, the activity change, negative = inhibition is inactive: 4.19% [at 12.8 µM].
Take `Cc1ccc(OCC(O)C(C)NC(C)C)c2c1CCC2` (stereo not drawn): the Potency entry is “inactive”.
Same read-out and setting: the value for `CC(C(O)c1ccc(O)cc1)N1CCC(Cc2ccccc2)CC1` (stereo not drawn) was “inactive”.
Consider `CCCCC(CC)CN=C(N)NC(N)=NCCCCCCN=C(N)NC(N)=NCC(CC)CCCC` (stereo not drawn), for which the “activity change, negative = inhibition” value was inactive: -25.8%.
Take `S=C(NCc1ccncc1)Nc1ccc(Br)cc1`: the Potency was active: 17.8 µM.
The same measure, in the same setting: as for `CCOC(=O)C1=C(N)Oc2ccc(Br)cc2C1C(C#N)C(=O)OCC` (stereo not drawn), the entry is “inactive”.
Consider `O=c1cc(-c2ccccc2Cl)oc2c(Br)ccc(O)c12`, for which the “activity change, negative = inhibition” value is inactive: 15.8%.
For `CCOC(=O)c1c(CSc2ccccc2)n(C)c2cc(Br)c(OCC(O)CNC(CO)(CO)CO)cc12` (stereo not drawn), the Potency is active: 14.1 µM.
With `CCC1CC=CC2C1C(=O)N(Cc1ccccc1)C2c1ccc(OC)c(Cl)c1` (stereo not drawn), the “activity change, negative = inhibition” value is inactive: 2.42%.
Regarding `COc1cc([C@H]2Oc3cc([C@H]4Oc5cc(O)cc(O)c5C(=O)[C@@H]4O)ccc3O[C@@H]2CO)ccc1O`, the “activity change, negative = inhibition” value is inactive: -24%.
Still for that read-out and setting: the value for `COC(=O)[C@H]1[C@@H]2C[C@@H]3c4[nH]c5ccccc5c4CCN3C[C@H]2CC[C@H]1O` was inactive: -3.84%.
Regarding `C=C1O[C@@](CO)(n2cnc3c(N)ncnc32)[C@H](O)[C@@H]1O`, the “activity change, negative = inhibition” value is inactive: 0.407%.
In the case of `CCCC1OC2CC3C4CCC5=CC(=O)C=CC5(C)C4C(O)CC3(C)C2(C(=O)CO)O1` (stereo not drawn), the “activity change, negative = inhibition” value was inactive: -2.49%.
Same read-out and setting: the value for `C=C1C(c2ccc(C)cc2)=CCc2cc(C)cc(C)c21` was inactive: -10.4%.
As to `NC(N)=N/N=C/c1ccc(OCc2ccccc2Cl)cc1`, the Potency was active: 22.4 µM.
On to `N#Cc1ccc(C23CC4(C2)[C@H](CN(P(=O)(c2ccccc2)c2ccccc2)[C@@H]4c2ccccc2)C3c2ccc(Cl)nc2)cc1` (stereo partly drawn), for which the “activity change, negative = inhibition” value is inactive: 13.9%.
Regarding `CN1CCN(C(=O)/C(=C/c2cccs2)NC(=O)c2cccs2)CC1`, the “activity change, negative = inhibition” value was inactive: -1.42%.
For `CCOc1ccc(C(C)=O)cc1COc1ccc(-c2nnco2)cc1`, the Potency was active: 11.2 µM.
For `c1ccc(-c2nc(NC3CCCC3)c3ccccc3n2)cc1`, the Potency was active: 15.8 µM.
Still for that read-out and setting: as for `NC[C@@H]1O[C@H](C23CC4CC(CC(C4)C2)C3)Cc2c1ccc(O)c2O`, the entry is “inactive”; as for `OCCNc1nc(Nc2ccccc2)nc(Nc2ccccc2)n1`, active: 11.2 µM.
For the molecule `C/C=C\C[C@@H](C)[C@@H](O)[C@H]1C(=O)N[C@@H](CC)C(=O)N(C)CC(=O)N(C)[C@@H](CC(C)C)C(=O)N[C@@H](C(C)C)C(=O)N(C)[C@@H](CC(C)C)C(=O)N[C@@H](C)C(=O)N[C@H](C)C(=O)N(C)[C@@H](CC(C)C)C(=O)N(C)[C@@H](CC(C)C)C(=O)N(C)[C@@H](C(C)C)C(=O)N1C`, the “activity change, negative = inhibition” value was inactive: -18.1%.
The same measure, in the same setting: as for `Cc1cc2nc3c(=O)[nH]c(=O)nc-3n(C[C@H](O)[C@H](O)[C@H](O)CO)c2cc1C`, the figure is inactive: 2.13%.
Consider `Cc1ccccc1Nc1nc(NCc2ccco2)c2ccccc2n1`, for which the Potency was active: 20 µM.
In the case of `Oc1cc2c(cc1O)C1c3ccc(O)c(O)c3OCC1(O)C2` (stereo not drawn), the “activity change, negative = inhibition” value is inactive: 5.27%.
On the same count and under the same terms, the value for `C=CCCN(C1CCCC1)S(=O)(=O)c1ccccc1Br` was inactive: -7.75%.
In the case of `C#CCOCCOCCOCCNc1nc(N2CCN(C(=O)CCCCCCCCCCNC(=O)[C@@H](CCSC)n3cc(CCO)nn3)CC2)nc(N2CCN(C(=O)CCCCCCCCCCNC(=O)[C@H](CCCN=C(N)N)n3cc(C[C@@H](C)CC)nn3)CC2)n1`, the Potency was active: 7.94 µM.
Same read-out and setting: as for `Cc1cc(C)c2nc(N(CCCN(C)C)C(=O)c3ccc(S(=O)(=O)N4CCCCCC4)cc3)sc2c1`, the figure is active: 15.8 µM; as for `Cn1cc(CN(CCCN2CCOCC2)C(=S)Nc2cccc(Cl)c2)c2ccccc21`, active: 10 µM.
In the case of `C#CCNC(=O)C1=C[C@@H](C(C)(C)C)C[C@@H](OCc2ccc(CO)cc2)O1`, the “activity change, negative = inhibition” value is inactive: 28.5%.
Still for that read-out and setting: as for `CN1CCN(CCc2ccc(Cl)c(Cl)c2)CC1`, the figure is inactive: -16%; as for `O=C1NC[C@H](Cc2ccc(O)cc2)N(CC2CCCCC2)C1=O`, inactive: -0.899%.
For `N[C@@H](Cc1cc(I)c(Oc2ccc(O)c(I)c2)c(I)c1)C(=O)O`, the Potency result was “inactive”.
Still for that read-out and setting: the value for `COc1cc(/C=N/N=C(N)N)ccc1OCc1ccc(Cl)cc1` was active: 7.94 µM; that for `CCCCCCNC(=O)Nc1ccc(S(=O)(=O)Nc2ccc(CCNC[C@H](O)COc3ccc(O)cc3)cc2)cc1` was active: 7.94 µM.
Turning to `C[C@@H]1C(=O)O[C@H]2[C@H](O)[C@@]34[C@H]5C[C@@H](C(C)(C)C)[C@]36[C@@H](OC(=O)[C@@H]6O)O[C@@]4(C(=O)O5)[C@@]12O`, the “activity change, negative = inhibition” value was inactive: 0.987%.
